According to PubChem BioAssay AID1508642 (National Center for Advancing Translational Sciences (NCATS), 2021):
Hit rate of the full screen: of about 43,000 compounds, about 200 (0.47%) were called active. Another 12% or so got no clear call; they are omitted. The call rests on the fitted dose curve; in most records, active means well fitted cell-killing curve with a large enough effect; inconclusive means small, poorly fitted or top-dose-only effect, or effect the other way; inactive means flat fitted curve, though single readings scatter. Some of the results follow.
On the % scale 0 is the no-effect control and ±100 the full control effect.

Test: Cell viability qHTS assay in S16 Pmp22-F2sN cells; further: nearly all actives have a fitted effect of over 65% in size
Settings: S16 Pmp22-F2sN Schwann cells viability, CellTiter-Glo, 24 h; series mostly up to 57.5 µM; activity change, negative = cytotoxicity: at the top concentration
Summary of the method: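 Used to flag compounds lowering reporter output through toxicity, this quantitative HTS measures ATP-based CellTiter-Glo luminescence in S16 Pmp22-F2sN Schwann cells after 24 h compound exposure at 37C.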
For `COc1ccc(-c2nc(C)c(CCNC(=O)Cc3ccc(F)cc3)s2)cc1OC`, the “activity change, negative = cytotoxicity” value was inactive: 5.68%. With `COc1cccc(-n2c(=O)c3c(C)c(C(=O)N(C)C)sc3n(CC(=O)NCCc3ccc(OC)c(OC)c3)c2=O)c1` the “activity change, negative = cytotoxicity” value was inactive: -6.02%. In the case of `Cc1cccc(NC(=O)N2CCc3c(sc4c3CCCC4)C2c2ccc(F)cc2)c1` (configuration not stated), the “activity change, negative = cytotoxicity” value is reported as inactive: -22.4%. With `CC(NC(=O)c1cc(Sc2ccc(F)cc2F)nc2ccccc12)c1ccccc1` (configuration not stated) the “activity change, negative = cytotoxicity” value was inactive: -10%. For `COc1cccc(NC(=O)CCNS(=O)(=O)c2ccc(Br)s2)c1`, the “activity change, negative = cytotoxicity” value was inactive: 0.184%. With `COc1ccc(CNC(=O)Cc2csc3ccccc23)cc1OC` the “activity change, negative = cytotoxicity” value was inactive: 8.97%. For `CCc1nn(CC(=O)N2CCCCC2)c(=O)c2cc3sccc3n12`, the “activity change, negative = cytotoxicity” value was inactive: 2.92%. For `COc1ccc2nc(NC(=O)c3nc(SCc4ccc(F)cc4)ncc3Cl)sc2c1`, the “activity change, negative = cytotoxicity” value was inactive: 15.4%. With `Cc1cn2c(=O)c(S(=O)(=O)NCCc3ccccc3)c(C)nc2s1` the “activity change, negative = cytotoxicity” value was inactive: 16%. In the case of `CCOc1ccc(-c2nnc(SCC(=O)NCCC(C)C)nc2-c2ccc(OCC)c(OC)c2)cc1OC`, the “activity change, negative = cytotoxicity” value is reported as inactive: -27.3%. In the case of `Cc1ccc(N2C(=O)CSC23C(=O)N(CC(=O)NC2CCCCC2)c2ccccc23)cc1` (configuration not stated), the “activity change, negative = cytotoxicity” value is reported as inactive: -0.871%. In the case of `CC(C)OCCCNC(=O)c1ccc(-n2c(-c3ccccc3)cc3c2CCCC3)cc1`, the “activity change, negative = cytotoxicity” value is reported as inactive: -4.78%. For `CC(C)CN1CCc2nc(N3CCN(c4ncccn4)CC3)ncc2C1`, the “activity change, negative = cytotoxicity” value was inactive: 12%. With `COc1cccc(C(=O)NCC(c2ccc(N(C)C)cc2)N2CCCC2)c1OC` (configuration not stated) the “activity change, negative = cytotoxicity” value was inactive: -0.516%. With `COCc1cc(C)nc2sc3c(c12)NC(c1ccc(O)cc1)N(c1ccc(OC)cc1)C3=O` (configuration not stated) the “activity change, negative = cytotoxicity” value was inactive: -5.41%. In the case of `CCOc1ccc(NC(=O)C2Cc3ccccc3N2C(=O)c2ccccc2)cc1` (configuration not stated), the “activity change, negative = cytotoxicity” value is reported as inactive: -7.04%. In the case of `CCOc1ccc(-c2c(C)nn3c(C)c(C(=O)Nc4ccccc4C(=O)OC)cnc23)cc1OCC`, the “activity change, negative = cytotoxicity” value is reported as inactive: -4.99%. With `COc1cc(Cn2c(=O)sc3ccccc32)ccc1OC(C)C` the “activity change, negative = cytotoxicity” value was inactive: -25.7%. In the case of `COc1ccccc1NC(=O)Cc1c(C(=O)O)[nH]c2ccc(Cl)cc12`, the “activity change, negative = cytotoxicity” value is reported as inactive: -14.2%. In the case of `Cc1ccc(-c2nc3cc(C(C)C)ccc3o2)cc1NC(=O)c1cccs1`, the “activity change, negative = cytotoxicity” value is reported as inactive: 8.09%. With `COCCn1c(C)cc(O)c(C(c2ccccc2)N2CCN(C)CC2)c1=O` (configuration not stated) the “activity change, negative = cytotoxicity” value was inactive: -10.2%. For `Cc1cccc(NC(=O)CSc2nc3ccc(NC(=O)c4ccco4)cc3s2)c1`, the “activity change, negative = cytotoxicity” value was inactive: 4.47%. In the case of `CCCCOc1ccc(CNC(=O)C2CCN(c3nnc(-n4cccc4CNc4ccc(C)cc4)s3)CC2)cc1`, the “activity change, negative = cytotoxicity” value is reported as inactive: -20.3%. In the case of `Cc1cc2nc(-c3cc(NC(=O)c4cc5ccccc5o4)ccc3Cl)oc2cc1C`, the “activity change, negative = cytotoxicity” value is reported as inactive: 27.4%. With `COc1cccc(C(=O)Nc2ccccc2OCc2cc(=O)n3cc(C)ccc3n2)c1` the “activity change, negative = cytotoxicity” value was inactive: 3.58%. With `Cc1cc(NC(=O)C(C)C)cc(-c2nc3ncccc3o2)c1O` the “activity change, negative = cytotoxicity” value was inactive: 1.78%. For `Cc1ccc2nc(-c3ccc(O)cc3)c(Nc3ccc4c(c3)OCO4)n2c1`, the “activity change, negative = cytotoxicity” value was inactive: -8.71%. In the case of `CC(C)N(Cc1ccccc1)C(=O)CCS(=O)(=O)c1cc2c(cc1Cl)NC(=O)CO2`, the “activity change, negative = cytotoxicity” value is reported as inactive: 3.19%. With `Cc1cc(C)n2nc(SCC(=O)Nc3ccccc3)nc2n1` the “activity change, negative = cytotoxicity” value was inactive: 1.08%. For `N#Cc1c(NC(=O)c2cc3nc(-c4ccc(Br)cc4)cc(C(F)(F)F)n3n2)sc2c1CCCC2`, the “activity change, negative = cytotoxicity” value was inactive: 0.209%. In the case of `O=C1CC(c2ccccc2C(F)(F)F)c2c(c3ccccc3[nH]c2=O)O1` (configuration not stated), the “activity change, negative = cytotoxicity” value is reported as inactive: 5.58%. With `Cc1ccccc1OCc1nnc(SCc2cc(=O)c3ccccc3[nH]2)n1C` the “activity change, negative = cytotoxicity” value was inactive: 0.242%. For `COc1ccc(N(CC(=O)NCCc2cccc(C)c2)S(=O)(=O)c2c(C)nn(C)c2C)cc1`, the “activity change, negative = cytotoxicity” value was inactive: 18.4%. For `COc1ccccc1N1CCN(C(CNC(=O)C(=O)NCCCN(C)C)c2cccnc2)CC1` (configuration not stated), the “activity change, negative = cytotoxicity” value was inactive: 0.478%. In the case of `CCOC(=O)C1=C(CS(=O)(=O)c2c(C)cc(C)cc2C)NC(=O)NC1c1cccc(OC)c1` (configuration not stated), the “activity change, negative = cytotoxicity” value is reported as inactive: -7.28%. In the case of `COc1ccc(-n2c(=O)c3ccc(C(=O)NCc4ccc(C)cc4)cc3n(CC(=O)Nc3ccc(F)cc3)c2=O)cc1`, the “activity change, negative = cytotoxicity” value is reported as inactive: 0.587%. For `Cc1ccc(NC(=O)c2oc3ccccc3c2NC(=O)c2cc3ccccc3o2)cc1`, the “activity change, negative = cytotoxicity” value was inactive: 5.37%. For `O=C(CSc1cn(CCNC(=O)c2c(F)cccc2F)c2ccccc12)Nc1ccc2c(c1)OCCO2`, the “activity change, negative = cytotoxicity” value was inactive: 27.5%. For `COC(=O)c1ccc(NC(=O)c2cc(S(=O)(=O)N3CCc4ccccc43)cn2C)cc1`, the “activity change, negative = cytotoxicity” value was inactive: 19.7%. In the case of `CC(C)CC(NS(=O)(=O)c1ccc2c(c1)oc(=O)n2C)C(=O)NCCc1ccc(Cl)cc1` (configuration not stated), the “activity change, negative = cytotoxicity” value is reported as inactive: -2.89%. In the case of `Cc1cc(C)cc(NS(=O)(=O)c2ccc3[nH]cc(C(=O)N4CCCC4)c(=O)c3c2)c1`, the “activity change, negative = cytotoxicity” value is reported as inactive: -7.54%. In the case of `CCOc1ccccc1NC(=O)Cn1cnc2onc(-c3ccc(F)cc3)c2c1=O`, the “activity change, negative = cytotoxicity” value is reported as inactive: -6.42%. With `O=C(OCc1cc(=O)n2nc(C3CC3)sc2n1)c1ccc(F)cc1` the “activity change, negative = cytotoxicity” value was inactive: -11.5%. In the case of `CC1=C(C(N)=O)C(c2cccc(Br)c2)n2nc(SCc3ccccc3)nc2N1` (configuration not stated), the “activity change, negative = cytotoxicity” value is reported as inactive: 0.334%. With `O=C(NCc1cccnc1)C1CCN(Cc2cc3ccccc3n2Cc2cccc(Cl)c2)CC1` the “activity change, negative = cytotoxicity” value was inactive: -26.4%. With `CCCCc1nnc(SCc2cc(=O)c3cc(C(=O)OCC)ccc3[nH]2)n1C` the “activity change, negative = cytotoxicity” value was inactive: 2.57%. With `CC(=O)Nc1cccc(C(=O)NCc2ccc3c(c2)CCN3C(=O)c2ccccc2)c1` the “activity change, negative = cytotoxicity” value was inactive: -0.123%.
